Each structure is given as a SMILES string. Counter-ions that a name gives are not always drawn. ± gives the standard deviation of the averaged measurements. Over roughly 2,000 compounds, “cell viability relative to DMSO control (compound alone)” has its median near 0.98; the lowest 2% begin near 0.23. The list shows a part of the results.

The test system of the test is PDC-DUC18828. In words: cell viability relative to DMSO control (compound alone) (fraction); PDC-DUC18828 is a patient-derived cholangiocarcinoma cell line; higher = less growth inhibition. Conditions: 1 µM; 72 h. As for the experimental part: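 Selleck Bioactive library screen in the patient-derived FGFR2-G3BP2 fusion-positive ICC cell line PDC-DUC18828 (500 cells/well). Each compound was tested at 1 uM alone, in triplicate, for 72 h. Viability was read by CellTiter-Glo and normalised to plate DMSO controls.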
With `Cc1[nH]c(/C=C2\C(=O)Nc3ccc(S(=O)(=O)Cc4c(Cl)cccc4Cl)cc32)c(C)c1C(=O)N1CCC[C@@H]1CN1CCCC1`, the cell viability came out at 1.03 ± 0.08. Take `C=CCN1CCCC1CNC(=O)c1cc2nn[nH]c2cc1OC` (centres undefined) [Alizapride HCl]: the cell viability is 0.96 ± 0.042. Take `Nc1nc(Nc2ccc(S(N)(=O)=O)cc2)nn1C(=O)c1c(F)cccc1F`: the cell viability came to 0.839 ± 0.056. As to `CC(C)c1onc(-c2c(Cl)cccc2Cl)c1COc1ccc(/C=C/c2cccc(C(=O)O)c2)c(Cl)c1`, the cell viability came out at 1.01 ± 0.055. The figure for `NC(=O)CCCSc1nc(N)nc(-c2c(Cl)cc3c4c(cccc24)COC3)n1` is 0.374 ± 0.024; for `Cc1c(Cn2c(C)nc3c(C(=O)O)cc(N4CCOCC4)cc32)cccc1C(F)(F)F` it is 0.932 ± 0.059. Compound `CCCCCCCCCCCCCCCC[N+](C)(C)C` [Cetrimonium Bromide (CTAB)] showed a cell viability of 0.921 ± 0.018. With `O=C(NCc1ccc(Oc2ccccc2)cc1)c1nc(-c2cc(Br)c(O)c(Br)c2)no1` the figure was 0.983 ± 0.076. With `S=c1nc[nH]c2nc[nH]c12` [6-Mercaptopurine (6-MP) Monohydrate] the figure was 0.925 ± 0.064; with `NCc1c[nH]c(=S)n1[C@H]1CCc2c(F)cc(F)cc2C1` [Nepicastat (SYN-117) HCl], 1.02 ± 0.044; with `Nc1nccs1` [Aminothiazole], 1.09 ± 0.013. With `NC(=O)c1cccnc1` [Nicotinamide (Vitamin B3)] the figure was 1.03 ± 0.026; with `CCCc1nc(C(C)(C)O)c(C(=O)OCc2oc(=O)oc2C)n1Cc1ccc(-c2ccccc2-c2nnn[nH]2)cc1` [Olmesartan Medoxomil], 1.08 ± 0.07. In turn, `Cn1c(=O)c2c(ncn2CC(O)CO)n(C)c1=O` (centres undefined) [Dyphylline] showed a cell viability of 0.988 ± 0.022. `CC(C)(C)c1ccc(S(=O)(=O)NCc2ccc(C(=O)Nc3cccnc3)cc2)cc1` yielded a cell viability of 0.496 ± 0.024. `CO[C@H]1C(=O)[C@]2(C)[C@@H](OC)C[C@H]3OC[C@@]3(OC(C)=O)[C@H]2[C@H](OC(=O)c2ccccc2)[C@]2(O)C[C@H](OC(=O)[C@H](O)[C@@H](NC(=O)OC(C)(C)C)c3ccccc3)C(C)=C1C2(C)C` [Cabazitaxel] showed a cell viability of 0.288 ± 0.019. `O=S(=O)(O)CCSSCCS(=O)(=O)O` [Dimesna] returned a cell viability of 0.921 ± 0.037.

`Clc1ccccc1C(c1ccccc1)(c1ccccc1)n1ccnc1` [Clotrimazole] displayed a cell viability of 0.988 ± 0.032. With `NC(=O)NO` [Hydroxyurea] the figure was 1 ± 0.028. Compound `Clc1ccc(COC(Cn2ccnc2)c2ccc(Cl)cc2Cl)cc1` (centres undefined) [Econazole nitrate] displayed a cell viability of 0.922 ± 0.073. The compound `CCc1cc(/C(C)=N/OCc2ccc(C3CCCCC3)c(C(F)(F)F)c2)ccc1CN1CC(C(=O)O)C1` [BAF312 (Siponimod)] gave a cell viability of 0.977 ± 0.026. For `Cc1cc(CS(=O)(=O)c2ccccc2)cc(OCc2ccc(CN3CCC[C@@H]3CO)cc2)c1`, the cell viability worked out at 0.949 ± 0.033. Regarding `COc1cc2c(cc1OC)CN(CCc1ccc(NC(=O)c3cccc4c(=O)c5cccc(OC)c5[nH]c34)cc1)CC2`, the cell viability came to 0.959 ± 0.01.

In turn, `CCN(CCCc1ccccc1)CCCc1ccccc1` [Alverine Citrate] came in with a cell viability of 0.912 ± 0.042. Consider `Cn1cnc(N)c2ncnc1-2` [3-Methyladenine], for which the cell viability was 1.04 ± 0.04. As to `Cc1c(O)cccc1C(=O)N[C@@H](CSc1ccccc1)[C@H](O)CN1C[C@H]2CCCC[C@H]2C[C@H]1C(=O)NC(C)(C)C` [Nelfinavir Mesylate], the cell viability was 0.964 ± 0.066. With `CN(C)CCC(c1ccccc1)c1ccccn1` (centres undefined) [Pheniramine Maleate] the figure was 1.02 ± 0.042.

Consider `Nc1ccn([C@@H]2O[C@H](CO)[C@@H](O)[C@H]2O)c(=O)n1` [Cytidine], for which the cell viability is 1.04 ± 0.1.

The compound `CC(C)NCCCn1c(Sc2cc3c(cc2I)OCO3)nc2c(N)ncnc21` returned a cell viability of 0.575 ± 0.08. `CN(C)CCN1C(=O)c2cccc3cc(N)cc(c23)C1=O` [Amonafide] displayed a cell viability of 0.991 ± 0.038. `CCOc1ccc(Cc2cc([C@@H]3O[C@H](CO)[C@@H](O)[C@H](O)[C@H]3O)ccc2Cl)cc1` [Dapagliflozin] returned a cell viability of 1.08 ± 0.041. The figure for `O[C@@H]1CO[C@H]2[C@@H]1OC[C@@H]2O` [Isosorbide] is 1.06 ± 0.015; for `O=c1cc(CN2CCOCC2)occ1OCCCCCSc1ccnc2cc(C(F)(F)F)ccc12` it is 0.89 ± 0.048.

Compound `Cc1ccc(O)c([C@H](CCN(C(C)C)C(C)C)c2ccccc2)c1` [Tolterodine tartrate] had a cell viability of 0.983 ± 0.03. With `Cc1cc(C)cc(NC(=O)Cc2ccc(OC(C)(C)C(=O)O)cc2)c1` [Efaproxiral Sodium] the figure was 1.07 ± 0.092; with `CCCCOc1ccc(CC(=O)NO)cc1` [Bufexamac], 0.869 ± 0.014; with `CCN1/C(=C/C(C)=O)Sc2ccc(OC)cc21`, 0.964 ± 0.029.

As to `CCCCC(C=O)NC(=O)C(CC(C)C)NC(=O)C(CC(C)C)NC(C)=O` (centres undefined), the cell viability was 0.486 ± 0.095. Take `CCCCCCCCCCCCCCCCO` [1-Hexadecanol]: the cell viability was 1.02 ± 0.015. For the compound `O=S(=O)(N=Cc1c(O)ccc2ccccc12)c1cccs1`, the cell viability was determined as 0.985 ± 0.036. The figure for `CCS(=O)(=O)N1CCC([C@@H](C)n2c(C)c(C(=O)NCc3c(OC)cc(C)[nH]c3=O)c3ccccc32)CC1` is 0.974 ± 0.026; for `Fc1ccc(CNc2ncnc3ccc(F)cc23)cc1` [Spautin-1] it is 0.898 ± 0.058. `Cc1c(OCC(F)(F)F)ccnc1C[S+]([O-])c1nc2ccccc2[nH]1` (centres undefined) [Lansoprazole] registered a cell viability of 0.923 ± 0.04. With `O=C1CCc2c(ccc3ccccc23)O1` [Splitomicin] the figure was 0.994 ± 0.026; with `CC[C@@H]1C(=O)N(C)c2cnc(Nc3ccc(C(=O)NC4CCN(C)CC4)cc3OC)nc2N1C1CCCC1`, 0.389 ± 0.017.

In the case of `COc1ccc2cc1Oc1ccc(cc1)C[C@H]1c3c(cc4c(c3Oc3cc5c(cc3OC)CCN(C)[C@@H]5C2)OCO4)CCN1C` [Cepharanthine], the cell viability was 0.871 ± 0.041.

`NC1=N[C@@]2(c3cc(NC(=O)c4ccc(F)cn4)ccc3F)COC[C@H]2CS1`: the cell viability amounted to 1.03 ± 0.018.

Consider `OCC(O)CN1CCN(c2ccccc2)CC1` (centres undefined) [Dropropizine], for which the cell viability was 0.947 ± 0.057. Turning to `COc1ccccc1N1CCN(CCN2C(=O)CC3(CCCC3)CC2=O)CC1`, the cell viability is 1.03 ± 0.029. `CN(C)CCC(c1ccc(Cl)cc1)c1ccccn1` (centres undefined) [Chlorpheniramine Maleate] yielded a cell viability of 0.938 ± 0.015.

The compound `COC1=CC(=O)C[C@@H](C)[C@]12Oc1c(Cl)c(OC)cc(OC)c1C2=O` [Griseofulvin] had a cell viability of 1.07 ± 0.073. With `CCC(=O)NCC[C@@H]1CCc2ccc3c(c21)CCO3` [Ramelteon] the figure was 1.015 ± 0.0099; with `CC(C)(C)c1cc(/C=C(\C#N)C(N)=S)cc(C(C)(C)C)c1O` [Tyrphostin AG 879], 0.906 ± 0.025. Regarding `COc1ccc(-c2coc3cc(O)cc(O)c3c2=O)cc1` [Biochanin A], the cell viability turned out to be 1.01 ± 0.038. The figure for `NS(=O)(=O)NCCNc1nonc1/C(=N/O)Nc1ccc(F)c(Br)c1` is 0.945 ± 0.0069; for `O[C@@H](COc1cccc2ncccc12)CN1CCN(C2c3ccccc3[C@@H]3[C@H](c4ccccc42)C3(F)F)CC1` (some centres undefined) it is 0.934 ± 0.019; for `O=S(=O)(NCCNC/C=C/c1ccc(Br)cc1)c1cccc2cnccc12` it is 1.03 ± 0.03.

As to `CC(C)c1noc(N2CCC(COc3ccc(-c4ccc(S(C)(=O)=O)cc4)nc3)CC2)n1`, the cell viability amounted to 1.05 ± 0.052. `O=C(NC1CCNCC1)c1n[nH]cc1NC(=O)c1c(Cl)cccc1Cl` had a cell viability of 0.421 ± 0.052. `O=CN1CC/C(=C/c2ccc3c(c2)OCO3)C1=O` yielded a cell viability of 0.943 ± 0.042. For the compound `CC[C@H](Nc1ncnc2[nH]cnc12)c1nc2cccc(F)c2c(=O)n1-c1ccccc1` [CAL-101 (Idelalisib, GS-1101)], the cell viability turned out to be 0.9237 ± 0.0058.

For the compound `CCCC(CCC)C(=O)O` [Divalproex Sodium], the cell viability came out at 0.954 ± 0.029. With `CCCC(CCC)C(=O)O` [Valproic acid sodium salt (Sodium valproate)] the figure was 1.06 ± 0.061. Compound `CN(C)[C@@H](CCOc1cccc2ccccc12)c1ccccc1` [Dapoxetine HCl] showed a cell viability of 0.953 ± 0.014. The compound `CNC(=O)c1ccc(N2C(=S)N(c3cnc(C#N)c(C(F)(F)F)c3)C(=O)C23CCC3)cc1F` showed a cell viability of 0.942 ± 0.042. On to `O=C(c1ccc(OCCN2CCCCC2)cc1)c1c(-c2ccc(O)cc2)sc2cc(O)ccc12` [Raloxifene HCl], for which the cell viability came to 0.937 ± 0.054. Take `CCOc1cc(N2CCC(O)CC2)ccc1Nc1ncc2c(n1)N(C)c1ccccc1C(=O)N2C`: the cell viability was 0.956 ± 0.029. With `Fc1ccc2[nH]ccc2c1-c1nc(N2CCOCC2)c2sc(CN3CCN(CC4CC4)CC3)cc2n1` the figure was 0.887 ± 0.12; with `CC(CN1c2ccccc2Sc2ccccc21)N(C)C` (centres undefined) [Promethazine HCl], 1.09 ± 0.018; with `CNC(=O)c1ccccc1Sc1ccc2c(/C=C/c3ccccn3)n[nH]c2c1` [Axitinib], 0.698 ± 0.012. The compound `Cc1ccc(NC(=O)Nc2cc(C(F)(F)F)ccc2F)cc1Nc1ccc2c(c1)NC(=O)/C2=C\c1ccc[nH]1` registered a cell viability of 0.926 ± 0.034.

`CCOC(=O)C1=C(C)NC(C)=C(C(=O)OC)C1c1cccc([N+](=O)[O-])c1` (centres undefined) [Nitrendipine] had a cell viability of 0.922 ± 0.016. With `COC1(c2sc3c(N4CCOCC4)nc(-c4cnc(N)nc4)nc3c2C)COC1` the figure was 0.276 ± 0.017. The figure for `COc1ccc(-n2nc(C(N)=O)c3c2C(=O)N(c2ccc(N4CCCCC4=O)cc2)CC3)cc1` [Apixaban] is 0.994 ± 0.045. In the case of `COc1ccc(C(C)=O)c(O)c1` [Paeonol], the cell viability worked out at 1.07 ± 0.029. The figure for `COc1c(O)cc2c(c1O)[C@@H]1O[C@H](CO)[C@@H](O)[C@H](O)[C@H]1OC2=O` [Bergenin] is 1.01 ± 0.086. With `Nc1cccc(-c2cc3c(Oc4cccc(O)c4)ncnc3[nH]2)c1` the figure was 0.735 ± 0.038; with `CC(C)[C@H]1CC[C@H](C(=O)N[C@H](Cc2ccccc2)C(=O)O)CC1` [Nateglinide], 0.979 ± 0.074. The figure for `COc1ccccc1OCCNCC(O)COc1cccc2[nH]c3ccccc3c12` (centres undefined) [Carvedilol] is 0.974 ± 0.018; for `CC(C)c1nc(CN(C)C(=O)N[C@H](C(=O)N[C@@H](Cc2ccccc2)C[C@H](O)[C@H](Cc2ccccc2)NC(=O)OCc2cncs2)C(C)C)cs1` [Ritonavir] it is 0.996 ± 0.036; for `CC1CCc2cc(F)cc3c(=O)c(C(=O)O)cn1c23` (centres undefined) [Flumequine] it is 0.97 ± 0.022. In the case of `CCCCOc1ccc(OCCCN2CCOCC2)cc1` [Pramoxine HCl], the cell viability came out at 0.937 ± 0.033.

On to `C[C@@H](O)[C@H]1C(=O)N2C(C(=O)OCOC(=O)C(C)(C)C)=C(SC3CN(C4=NCCS4)C3)[C@H](C)[C@H]12` [Tebipenem Pivoxil], for which the cell viability worked out at 0.988 ± 0.024. The compound `CCCS(=O)(=O)Nc1ccc(F)c(C(=O)c2c[nH]c3ncc(Cl)cc23)c1F` had a cell viability of 0.968 ± 0.034.

Source of the values: the supplement of paper PMC9588766.
